# Assay results from PMC12136788.
# The other results are listed elsewhere or left out.
# B1: chr3:100749155:100750494:-|three_prime_utr|ENSG00000154175|control|control|control (ssRNA)
# RNA: GGGAGUUCUACAGUCCGACGAUCUGCCGCAUUCAUUUAAAGCUAUUUUGUUUACUAUGUAUAAAAGUCUACAAUCUAAUUAAUAGCAAUACUAGAUGUUUAUUAUUAGAAAAGAUUGCUGAGAGUAUUUAUCAGGUUUUACAACAACAGAGGAUUGAGCAUCA
# B2: ENSG00000107863:be:win_2301|CDS|ENSG00000107863|bound_else_gene|NA|bound_elsewhere_windowed (ssRNA)
# RNA: GGGAGUUCUACAGUCCGACGAUCAGACACUACCUGCUGGCUGCCCAAUGAUGCACGUCGAGAGGUCCACAUAAAAAGAAUGGAGGAAAGAAAAGCCUCGAGUACCAGUCCGCCUGGCGAUUCUUUGGCUUCCAUCCCAUUUAUCAACAGAGGAUUGAGCAUCA
# B3: chr20:53567570:53567671:-|3pUTR|ENSG00000171940|unk|total|mutant (ssRNA)
# RNA: GGGAGUUCUACAGUCCGACGAUCUCACAAGCUGAGCCAUAUGUACAUAAUCCCGAUUUUGUUUUCACCGUUUUGCACUUUUACCGCCUAUUUUUGAAGAUUAACACAUUUGCAAGAUGAUUGACUCAAUCUUUGCCUAAUCCACAACAGAGGAUUGAGCAUCA
# B4: chr5:55135756:55136053:-|three_prime_utr|ENSG00000164287|control|control|control (ssRNA)
# RNA: GGGAGUUCUACAGUCCGACGAUCGAAUUGCUUGAACCAGGGAGGCGGAAGUUGCAGUGAGCUGAGACCGUGCCACUGCUCUCUAGCUUGGCUGACAGAGUGAGACUCUGUCUCAAAAAAAAAAAUAUUUUUUUUGGAAAUUUUCAACAGAGGAUUGAGCAUCA
# B5: chr15:63694043:63694144:-|CDS|ENSG00000103657|unk|total|mutant (ssRNA)
# RNA: GGGAGUUCUACAGUCCGACGAUCAGGACCUAUGCUGAUAAACUGAGUCCCAAAGCCGUUCAAUCCUUGUUGGAUCUACUCUGCCGUCAGUUGAAGAAUUUAUUGUCCCAAACUGGUGUACUACAUAUGGCCUCUUUCGGAGAACAACAGAGGAUUGAGCAUCA
# B6: chr5:32419879:32419980:-|CDS|ENSG00000056097|msi1|FALSE|unique (ssRNA)
# RNA: GGGAGUUCUACAGUCCGACGAUCAGUUACUGCUGCCUAUGCACCAGCAGCCGCCACAGUUGCAGUUGCCAGGCCUGCUCCAGUAGCUGUUGCAGCUGCUGCAACAGCUGCUGCUUAUGGAGGCUACCCCACUGCACACACAGCCAACAGAGGAUUGAGCAUCA
# B7: chr13:24435137:24435247:-|CDS|ENSG00000102699|unk|total|mutant (ssRNA)
# RNA: GGGAGUUCUACAGUCCGACGAUCAAACCAACAGCAACUGAACCACUAUUUAAGAAAGUCAGUCCAUGGGAAACAUCUACUUCCCGCUUUUUUCCUAUUUUGGCUCCGGCCGUUGGUUCCUAUCUUCCCCCGACUGCCCGCGCUCAACAGAGGAUUGAGCAUCA
# B8: ENSG00000070961:be:win_5351|3pUTR|ENSG00000070961|bound_else_gene|NA|bound_elsewhere_windowed (ssRNA)
# RNA: GGGAGUUCUACAGUCCGACGAUCUCACCAGAUACACAAUCCUCAGGCUGACAUAAAGUUUACGAGGACUGCUACUAUAACUGAGAGUGCUGACCAAGCAAAGAAACAUUUAGUUGAUGGUGCUUGAUAUUUUUGGUGGGUGGGCAACAGAGGAUUGAGCAUCA
# B9: chr3:152462637:152462738:+|3pUTR|ENSG00000152601|msi1|FALSE|unique (ssRNA)
# RNA: GGGAGUUCUACAGUCCGACGAUCGAACAACAUUGUCUUUCUUUUCUAGCACAGAGUUAUGCAUUCAAAGAUGCAUACCUAGUUAGUUUCCUAUAUAUUCAUGCCAUCUUGAAAAGACAGACUAUGGUGUAACCAUGAUUCUAUCAACAGAGGAUUGAGCAUCA
# B10: ENSG00000136451:be:win_2501|3pUTR|ENSG00000136451|bound_else_gene|NA|bound_elsewhere_windowed (ssRNA)
# RNA: GGGAGUUCUACAGUCCGACGAUCUCCCAAUCAGAGCCUGUUGAUAUUACAACAGGGACAGAUGUGUUAGUUGCUCACUAGAGUUUAUGUCUUAUAUUAAAUUGUAUACAGUUUUUAUUCUAACCACUAACUAGGUAGUGUAUGCAACAGAGGAUUGAGCAUCA
# B11: ENSG00000070961:be:win_3551|CDS_3pUTR|ENSG00000070961|bound_else_gene|NA|bound_elsewhere_windowed (ssRNA)
# RNA: GGGAGUUCUACAGUCCGACGAUCACAAAAAUAACAAUGCUGUUGACAGUGGAAUUCACCUUACAAUAGAAAUGAACAAGUCUGCUACCUCUUCAUCCCCAGGAAGCCCACUACAUAGUUUGGAAACAUCACUCUGAUUGUAAGCAACAGAGGAUUGAGCAUCA
# B12: chr2:171983412:171983537:+|3pUTR|ENSG00000128708|unk|FALSE|unique (ssRNA)
# RNA: GGGAGUUCUACAGUCCGACGAUCUGAUGACUUUAAUUUUAAAAUCUUGUGACAUUUUGCUUAUACUAAAAGUUAUCUAUCUUUAGUUGAAUAUUUUCUUUUGGAGAGAUUGUAUAUUUUAAAAUACUGUUUAGAGUUUAUGAGCAACAGAGGAUUGAGCAUCA
# B13: chr14:106088121:106088428:-|CDS|ENSG00000282639|control|control|control (ssRNA)
# RNA: GGGAGUUCUACAGUCCGACGAUCGUCCGCCAGGCUCCAGGGAAGGGACUGGAAUAUGUUUCAGCUAUUAGUAGUAAUGGGGGUAGCACAUACUACGCAGACUCCGUGAAGGGCAGAUUCACCAUCUCCAGAGACAAUUCCAAGCAACAGAGGAUUGAGCAUCA
# B14: ENSG00000136451:be:win_3651|3pUTR|ENSG00000136451|bound_else_gene|NA|bound_elsewhere_windowed (ssRNA)
# RNA: GGGAGUUCUACAGUCCGACGAUCGGCAUGCAGACCCAAAACUGGGUUCUGGCUCUGCCUGCUGGGAUCUGUUAUCUCUGGUGGGCUGGCAGUCAUAAUUCACAAUUCAGACAGCCCAGGCUUCCUCCACAGUGGUCCAAGGAGCAACAGAGGAUUGAGCAUCA
# B15: chr19:48922626:48922741:+|3pUTR|ENSG00000104805|msi1|total|mutant (ssRNA)
# RNA: GGGAGUUCUACAGUCCGACGAUCUCCUCCGAGGGGCUUGCCUUCUCUCGUGUCCAGUGAGGUGCUCAGUGAUCGGCUUAACUCCGAGAAGCCCGCCCCCUCCCCUUCUCCGUCUGUCCCAAGAGGGUCUGCUCUGAGCCUGCGCAACAGAGGAUUGAGCAUCA
# B16: chr9:124811826:124811928:+|3pUTR|ENSG00000185585|msi1|FALSE|unique (ssRNA)
# RNA: GGGAGUUCUACAGUCCGACGAUCAAGAAAUUUUCUAGCCCAACUCCCUGUUUCAUGAAAGAGAAAAGAGGCUCAGAAAAGUUUAGAGAGCAGCUCAGUGUCACACUGGGAGCUGGGCACAGCCGAUCUCCUUCCAGAAGGGUUCAACAGAGGAUUGAGCAUCA
# B17: chr6:83525322:83525423:+|3pUTR|ENSG00000146250|msi1|total|mutant (ssRNA)
# RNA: GGGAGUUCUACAGUCCGACGAUCACAAUUACAAUGUGUAUUAUUUAAAAAUGGGAGAAACCGUUUGUUCUAUGAAAUAAACCCCGUUCCGAAACCGGGAAGCUGAGACAUUUUAAGAUCUCAAGUUUUUAUUUAACUAAUACUCAACAGAGGAUUGAGCAUCA
# B18: chr3:27418507:27418620:-|CDS|ENSG00000033867|unk|FALSE|bound_elsewhere (ssRNA)
# RNA: GGGAGUUCUACAGUCCGACGAUCUGAUGUAGCUUAUAAAGCAAAAGACAGAAAUGACCUCUUAUCUGGAAUUGAUGAAUUUUUAGAUCAAGUAACUGUCCUACCUCCAGGAGAGUGGGAUCCUUCUAUACGCAUAGAACCACCCAACAGAGGAUUGAGCAUCA
# B19: chr11:118254921:118255022:-|3pUTR|ENSG00000149573|unk|FALSE|unique (ssRNA)
# RNA: GGGAGUUCUACAGUCCGACGAUCACAGCCUCAUUAUUAAGGUCUUAUUUAAUUUCAGAGUGUAAAUUUUUUCAAGUGCUCAUUAGGUUUUAUAAACAAGAAGCUACAUUUUUGCCCUUAAGACACUACUUACAGUGUUAUGACCAACAGAGGAUUGAGCAUCA
# B20: chr15:48879495:48879609:+|3pUTR|ENSG00000255302|msi1|total|mutant (ssRNA)
# RNA: GGGAGUUCUACAGUCCGACGAUCGACACUAAAUGUGUGUGAAUGUACAAAGAAAACAAACCAUUGCUUAUGCUGUUAUAUACCCGAGAAAUUUUGUUUUGCUUGCUGUUUUAACUUGACAGAUGAAGGACUUCCGUUGAACUUCAACAGAGGAUUGAGCAUCA
# B21: chr11:123753582:123754518:-|CDS|ENSG00000221931|control|control|control (ssRNA)
# RNA: GGGAGUUCUACAGUCCGACGAUCGUGGUGUCUGUGCUAAAUACUAUCCUCACCCCCCUUCUGAAUCCCUUUAUUUAUACUAUUAGAAACAAGGAGGUGAAGGGAGCCUUAAGAAAGGCAAUGACUUGCCCAAAGACUGGUCAUCAACAGAGGAUUGAGCAUCA
# B22: chr16:57471571:57471634:+|3pUTR|ENSG00000102978|msi1_unk|total|mutant (ssRNA)
# RNA: GGGAGUUCUACAGUCCGACGAUCACCGCCUUUAUUCAGGGGGCCUAUAAACCCUUCCAGUUCUUGCCCCAGGGCUGGCCUGCCCGCGCUUCAAAUUCCCAGGUGUCCCUAAUUUGAGAAGUAACCUUUUGGAACCGCAUCCGACAACAGAGGAUUGAGCAUCA
# Molecular target: MSI1 full-length (mouse, UniProt Q61474 1-362)
# UniProt Q61474, sequence (Q61474 whole entry): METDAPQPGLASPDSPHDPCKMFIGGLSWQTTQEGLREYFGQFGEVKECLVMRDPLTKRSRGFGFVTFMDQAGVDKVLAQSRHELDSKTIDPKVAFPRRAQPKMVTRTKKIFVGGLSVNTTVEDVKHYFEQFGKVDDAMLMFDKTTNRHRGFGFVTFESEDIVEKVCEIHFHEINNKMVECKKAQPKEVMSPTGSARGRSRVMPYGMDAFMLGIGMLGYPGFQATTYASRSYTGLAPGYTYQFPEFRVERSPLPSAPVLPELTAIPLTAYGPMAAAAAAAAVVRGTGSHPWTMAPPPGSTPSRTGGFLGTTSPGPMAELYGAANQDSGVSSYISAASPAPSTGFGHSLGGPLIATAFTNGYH
# Experiment: nsRBNS (natural sequence RNA bind-n-seq); RBNS binding buffer (assumed for nsRBNS): 25 mM Tris pH 7.5, 150 mM KCl, 3 mM MgCl2, 0.01% Triton X-100, 500 ug/ml BSA, 20 U/ml SUPERase-In, 4 C; UNK is unkempt and MSI1 is Musashi-1; names of the RNAs are library labels; protein concentration not given here; high values mean tight binding
row,Binder,binding signal
1,B1,4.63 enrichment R
2,B2,0.452 enrichment R
3,B3,0.666 enrichment R
4,B4,0.454 enrichment R
5,B5,0.265 enrichment R
6,B6,0.284 enrichment R
7,B7,0.396 enrichment R
8,B8,0.373 enrichment R
9,B9,10.2 enrichment R
10,B10,25.2 enrichment R
11,B11,0.698 enrichment R
12,B12,3.32 enrichment R
13,B13,1.24 enrichment R
14,B14,0.488 enrichment R
15,B15,0.734 enrichment R
16,B16,0.831 enrichment R
17,B17,0.555 enrichment R
18,B18,0.49 enrichment R
19,B19,4.49 enrichment R
20,B20,0.368 enrichment R
21,B21,2.68 enrichment R
22,B22,0.649 enrichment R
